Laboratory results from article PMC4336329 (PLoS ONE, 2015).
Hit rate of the full screen: of about 310,000 compounds, about 14,000 (4.5%) showed an effect of 50% or more. Effects have a minus sign here. The list shows a part of the results.

molecular target: human ether-à-go-go-related gene (hERG) potassium channel (human, UniProt Q12809); assay: primary screen, population patch clamp on CHO cells stably expressing hERG
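Also: peak tail current of the secondary pulse compared with the same well before compound.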

Sequence of human ether-à-go-go-related gene (hERG) potassium channel (Q12809 whole entry, looked up): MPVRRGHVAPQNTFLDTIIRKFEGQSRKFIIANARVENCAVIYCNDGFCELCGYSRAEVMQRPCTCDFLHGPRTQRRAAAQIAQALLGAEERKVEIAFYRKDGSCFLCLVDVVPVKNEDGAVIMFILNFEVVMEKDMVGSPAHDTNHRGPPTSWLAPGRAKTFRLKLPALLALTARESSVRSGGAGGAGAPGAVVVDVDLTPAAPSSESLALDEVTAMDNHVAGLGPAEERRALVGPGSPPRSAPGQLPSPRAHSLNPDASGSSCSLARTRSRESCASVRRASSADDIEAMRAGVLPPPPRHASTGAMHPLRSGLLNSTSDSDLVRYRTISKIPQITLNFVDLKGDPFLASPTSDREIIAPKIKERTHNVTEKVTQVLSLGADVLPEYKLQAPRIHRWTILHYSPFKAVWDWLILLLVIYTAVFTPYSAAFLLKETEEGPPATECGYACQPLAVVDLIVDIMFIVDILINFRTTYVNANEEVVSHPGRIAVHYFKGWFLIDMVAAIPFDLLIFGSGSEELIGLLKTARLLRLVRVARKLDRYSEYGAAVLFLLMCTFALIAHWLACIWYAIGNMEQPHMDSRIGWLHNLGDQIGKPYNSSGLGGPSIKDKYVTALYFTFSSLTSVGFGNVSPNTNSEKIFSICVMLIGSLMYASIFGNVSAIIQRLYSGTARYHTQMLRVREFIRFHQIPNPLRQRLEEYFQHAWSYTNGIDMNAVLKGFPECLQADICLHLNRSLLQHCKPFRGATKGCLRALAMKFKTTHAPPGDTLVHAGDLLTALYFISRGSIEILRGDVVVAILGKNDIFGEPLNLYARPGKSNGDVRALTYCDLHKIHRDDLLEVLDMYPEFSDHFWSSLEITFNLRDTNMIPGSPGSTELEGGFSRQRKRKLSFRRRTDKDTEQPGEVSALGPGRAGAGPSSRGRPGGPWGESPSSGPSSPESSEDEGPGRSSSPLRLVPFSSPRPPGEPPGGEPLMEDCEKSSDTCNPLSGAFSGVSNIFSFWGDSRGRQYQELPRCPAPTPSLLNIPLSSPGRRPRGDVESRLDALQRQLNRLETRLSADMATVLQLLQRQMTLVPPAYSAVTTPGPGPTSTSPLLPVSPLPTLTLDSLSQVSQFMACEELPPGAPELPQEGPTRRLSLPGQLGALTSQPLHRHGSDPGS

Row | SMILES | hERG current change (%, negative = inhibition) at 10uM
1 | CN(c1cccc(NC(=O)c2ccc(Cl)c(S(=O)(=O)N3CCOCC3)c2)c1)S(C)(=O)=O | -15.8%
2 | CC1=NN(C(=O)c2ccco2)C(O)(c2ccccc2)C1 (centres unmarked) | 11.3%
3 | Cc1ccc(-n2ncc(C#N)c2/N=C/N2CCCCCC2)cc1 | -26.4%
4 | Cc1cccn2c(=O)c(/C=C(\C#N)S(=O)(=O)c3ccccc3)c(N3CCN(Cc4ccccc4)CC3)nc12 | -4.68%
5 | CCOC(=O)c1c(CSc2ccccc2)n(C)c2cc(Br)c(OCC(O)CNC(CO)(CO)CO)cc12 (centres unmarked) | 2.71%
6 | O=C(NCCc1ccccc1)C1CCC(CNS(=O)(=O)c2cccs2)CC1 (centres unmarked) | 12.8%
7 | N#CC(c1ccc(O)cc1)N1CCOCC1 (centres unmarked) | 8.57%
8 | CCS(=O)(=O)N1CCN(C(=O)CC(C)C)CC1 | -7.56%
9 | Cc1cccc(NC(=O)/C(=C\c2ccco2)NC(=O)c2ccccc2)c1 | -22.4%
10 | COC(=O)c1ccccc1NC(=O)c1cccs1 | 1.38%
11 | Cc1[nH]c2ccc(C(=O)OCC(=O)Nc3cccc(S(N)(=O)=O)c3)cc2c1C | -1.33%
12 | Cc1onc(-c2ccccc2)c1C(=O)NC(=S)NNC(=O)c1ccncc1 | 3.16%
13 | O=C(NCC1(O)CCCCC1)C1CCC(=O)N(Cc2ccccc2F)C1 (centres unmarked) | 14.2%
14 | Cc1ccc(NC(=O)CN(C)C(=O)C(C)OC(=O)CNC(=O)c2ccc(Cl)c([N+](=O)[O-])c2)cc1 (centres unmarked) | -43%
15 | COc1ccc(-n2ccnc2SCC(=O)NCc2ccc(F)cc2)c(OC)c1 | -10.7%
16 | CCOC(=O)c1c(C)[nH]c(NC(=O)Nc2ccc(NC(C)=O)cc2)c1C | 13.4%
17 | COc1ccc(CCNC(=O)CCNC(=O)c2ccc(Br)cc2)cc1OC | -0.633%
18 | O=C1SC(Cc2ccccc2)C(=O)N1c1ccccc1 (centres unmarked) | 7.84%
19 | CCOc1ccc(N=C(C)C2=C(O)c3ccccc3C2=O)cc1 | 4.02%
20 | CCOCC(=O)Nc1nc2ccccc2s1 | 12.7%
21 | O=S(=O)(NC1=NCCCCC1)c1cccs1 | 3.96%
22 | Cc1ccc(S(=O)(=O)Nc2ccc(S(=O)(=O)N3CCCC3)cc2)cc1 | -12.4%
23 | CCC(C)(C)NC(=O)C(OC(=O)c1ccco1)c1ccccc1OC (centres unmarked) | 8.13%

Row | SMILES | hERG current change (%, negative = inhibition) at 10uM
24 | CCN1CCN(CC(O)COc2ccc(C)c(C)c2)CC1.Cl (centres unmarked) | -18.3%
25 | CCS(=O)(=O)c1nc(S(=O)(=O)c2ccc(C)cc2)c(N2CCC3(CC2)OCCO3)s1 | -35.4%
26 | O=C(CCN1CCCCC1=O)NC1CCCN(Cc2ccc(Cl)cc2)C1 (centres unmarked) | -8.14%
27 | CC1(C)C2CCC1(C)C(NC(=O)/C=C/c1ccccc1)C2 (centres unmarked) | -11.9%
28 | COc1ccc(OC)c(CNC(=O)C2CCCN(S(=O)(=O)N3CC(C)CC(C)C3)C2)c1 (centres unmarked) | -10.6%
29 | O=C(NC(=S)N1CCN(c2ccccc2)CC1)c1ccc(S(=O)(=O)N2CCOCC2)cc1 | 13.8%
30 | CC(=O)Nc1ccc(C(=O)COC(=O)CCc2ccccc2)c(F)c1 | -2.03%
31 | O=S(=O)(CCN1CCN(C(c2ccccc2)c2ccccc2)CC1)C(F)(F)F | 4.97%
32 | Cc1ccn2c(=O)nc(SCC(=O)NCc3ccccc3Cl)nc2c1 | -8.93%
33 | CCOC(=O)C1CCCN(C(=O)Cn2nc(C)n3c(cc4c(OC)cccc43)c2=O)C1 (centres unmarked) | -6.37%
34 | Cc1ccc(N2CCN(C(=O)c3cc(-c4ccc(F)cc4)[nH]c3C)CC2C)cc1 (centres unmarked) | -13.3%
35 | CCC(C)[C@H](NS(=O)(=O)c1ccc(C)cc1)C(=O)N1CCC(C(=O)N[C@@H](Cc2ccccc2)C(=O)O)CC1 (some centres unmarked) | 13.3%
36 | CC(/C=C/c1ccccc1)=N\NC(=O)c1cc(C)[nH]n1 | -11.5%
37 | CC1(c2cccc(Br)c2)NC(=O)N(CC(=O)NCC2CCCO2)C1=O (centres unmarked) | 5.98%
38 | CCN(CC)CCOC(=O)c1ccc(NC(=O)CCCN2C(=O)/C(=C/c3cccs3)SC2=S)cc1 | -7.96%
39 | CCN(CC)CCOc1nnc(-c2ccc(C)cc2)c2ccccc12 | -67.7%
40 | COC(=O)C1OC2(OC1C(=O)OC)c1ccccc1-c1ccccc12 (centres unmarked) | 13.5%
41 | CC(C)C(OC(=O)c1oc2ccccc2c1CSC1CCCCC1)C(=O)NC(N)=O (centres unmarked) | 21.2%
42 | CCc1nnc(NC(=O)c2cc(C)oc2C)s1 | -10%
43 | COCCN(Cc1ccccc1)C(=O)c1cccc(S(=O)(=O)N2CCN(c3ccccc3)CC2)c1 | -52.8%
44 | CCOC(=O)Cc1nnc(NC(=O)c2cccc(OCC)c2)s1 | 6.22%
45 | O=C(O)CCS(=O)(=O)c1cc(Br)cc2c1N(C(=O)C1CC1)CC2 | 9.39%
46 | Cc1oc(-c2cccc3ccccc23)nc1CN1CCC[C@H]1CO | -12.2%

Row | SMILES | hERG current change (%, negative = inhibition) at 10uM
47 | COc1ccc(S(=O)(=O)Cc2ccc(C(=O)N3CCN(c4ccccc4F)CC3)o2)cc1 | -52.8%
48 | CC(C)c1ccc(OCC(=O)NN2C(=O)c3ccccc3C2=O)c(Br)c1 | 8.95%
49 | CN1CCN(c2ccc(C(CC(N)=O)NC(=O)Cc3ccc(Br)cc3)cc2[N+](=O)[O-])CC1 (centres unmarked) | 3.08%
50 | Cc1c2cnn(CC(=O)NC3CCCC3)c(=O)c2c(C)n1Cc1ccccc1 | 11.7%
51 | CCOc1ccc(S(=O)(=O)NC(Cc2cnc[nH]2)C(=O)O)cc1 (centres unmarked) | 18.5%
52 | CCOc1ccc(S(=O)(=O)Nc2ccccc2SC)cc1 | -19.4%
53 | O=C(Cc1c(O)c2ccccc2oc1=O)c1ccc(F)cc1 | 6.47%
54 | Cc1ccc(-c2noc(-c3ccno3)n2)cc1 | 9.19%
55 | COC(=O)c1nc[nH]c1C(=O)OC | 14.3%
56 | Cc1ccc(NC(=O)Cn2c(=O)n(Cc3ccco3)c(=N)c3c4c(sc32)COC(C)(C)C4)cc1 | -7.76%
57 | CCOC(=O)/C(C#N)=C/c1cc2ccccc2nc1N1CCOCC1 | -13.6%
58 | COc1ccc([C@H]2CC(=O)C=C(c3ccc(-c4ccccc4)c(F)c3)C2)cc1 | 15.7%
59 | CCN(CC)CCN/N=C(\C)c1c(O)[nH]c(=O)[nH]c1=O | 13.9%
60 | CCOc1ccc(Br)cc1C(=S)N1CCCC1 | 9.29%
61 | CCCCNC(=S)Nc1ccc(F)cc1 | 20.6%
62 | O=C(CN(C(=O)CCC(=O)Nc1nccs1)c1cccc(F)c1)NCc1ccc(F)cc1 | -7.31%
63 | COC(=O)/C(C#N)=C\c1c(OC)[nH]c2ccccc12 | 14%
64 | O=C(N/N=C/c1ccc(N2CCOCC2)cc1)c1ccccn1 | 7.37%
65 | CCC1(C)SC(NC(C)=O)=NN1C(C)=O (centres unmarked) | 20.6%
66 | CC(C)n1cc(/C=N/Nc2ccc(C(=O)O)cc2)c2ccccc21 | 1.07%
67 | CCc1ccc(Nc2n[n+](C)c(-c3ccncc3)s2)cc1.[Cl-] | -29.7%
68 | Cc1ccc(NC2CCCN(C(=O)c3cccc4nccnc34)C2)cc1C (centres unmarked) | 23%
69 | CCCCOC(=O)c1nc(Cl)c(Cl)c(N)c1Cl | -0.0656%

Row | SMILES | hERG current change (%, negative = inhibition) at 10uM
70 | COc1ccc(NC(=S)Nc2ncccc2C)c(OC)c1 | 8.22%
71 | O/N=C1\CCCc2ccc3ccccc3c21 | 10.8%
72 | CC1CCc2sc3nc(NCc4ccco4)n4ncnc4c3c2C1 (centres unmarked) | -3.05%
73 | CCCCNc1nc(CC(C)=O)ns1 | 0.309%
74 | COc1ccc(CCNC(=O)CSc2nnc3ccc(-c4cccnc4)nn23)cc1 | -33.5%
75 | Cc1cc(C(=O)COc2cccc([N+](=O)[O-])c2)c(C)n1C1CC1 | -35.7%
76 | Cc1cc(C)cc(OCC(=O)OCC(=O)c2c(N)n(C)c(=O)n(C)c2=O)c1 | -5.06%
77 | CCc1ccc(NC(=O)CC2C(=O)Nc3c2c(=O)n(C)c(=O)n3C)cc1 (centres unmarked) | -4.1%
78 | COCCN=C1Sc2nc3ccc(C)cc3cc2CN1Cc1ccco1 | -61%
79 | Cc1ccc(N2C(=O)CC(Sc3ccccc3C(=O)O)C2=O)c([N+](=O)[O-])c1 (centres unmarked) | 16.2%
80 | CC(C)c1cccc(C(C)C)c1NC(=O)COC(=O)C1CCC1 | 14.4%
81 | CCCCCCC(C)n1[nH]c(=O)cc1N (centres unmarked) | 3.7%
82 | O=C(COc1ccc2c3c(c(=O)oc2c1)CCC3)NCC(O)c1ccccc1 (centres unmarked) | 11.5%
83 | Cc1cc(C)nc(OC(C(=O)O)C(OCCc2ccccc2)(c2ccc(F)cc2)c2ccc(F)cc2)n1 (centres unmarked) | 11.3%
84 | O=C(Nc1cccc(Cl)c1)OCc1ccccn1 | 1.34%
85 | CC(C)n1c(=S)[nH]c2ccccc2c1=O | 0.0442%
86 | O=C(NNS(=O)(=O)c1ccc(Cl)cc1)C1CCN(Cc2ccccc2)CC1 | -15.5%
87 | COc1ccc(NC(=O)CCCn2c(=O)[nH]c3ccccc3c2=O)cc1 | 1.73%
88 | Cc1ccc(-c2cccc(NC(=O)C3C4C=CC(C4)C3C(=O)O)c2)o1 (centres unmarked) | -33.1%
89 | CN(Cc1nccn1C)C(=O)CC1C(=O)NCCN1Cc1cccc(Oc2ccccc2)c1 (centres unmarked) | -2.23%
